Experimental data as given in a collection of fitness landscapes (doi:10.1126/science.1257360).
This is one part of the list.

B1: PhoQ; a variant is named by its letters at X, in order, P23837 (parent)
chain: MKKLLRLFFPLSLRVRFLLATAAVVLVLSLAYGMVALIGYSVSFDKTTFRLLRGESNLFYTLAKWENNKLHVELPENIDKQSPTMTLIYDENGQLLWAQRDVPWLMKMIQPDWLKSNGFHEIEADVNDTSLLLSGDHSIQQQLQEVREDDDDAEMTHSVAVNVYPATSRMPKLTIVVVDTIPVELKSSYMVWSWFIYVLSANLLLVIPLLWVAAWWSLRPIEALAKEVRELEEHNRELLNPATTRELTSLVRNLNRLLKSERERYDKYRTTLTDLTHSLKTPLXXLQXXLRSLRSEKMSVSDAEPVMLEQISRISQQIGYYLHRASMRGGTLLSRELHPVAPLLDNLTSALNKVYQRKGVNISLDISPEISFVGEQNDFVEVMGNVLDNACKYCLEFVEISARQTDEHLYIVVEDDGPGIPLSKREVIFDRGQRVDTLRPGQGVGLAVAREITEQYEGKIVAGESMLGGARMEVIFGRQHSAPKDE

Variants of: B1
Assay: enrichment ratio after two sorts for PhoP signalling (ratio (wild type AVST 3.29)); higher = more functional
Details: with PhoP (E. coli)

Variant | enrichment ratio
PVSK | ≤ 0.25
VGMA | ≤ 0.25
YEHG | ≤ 0.25
AWLQ | ≤ 0.25
KKAL | ≤ 0.25
LQIK | ≤ 0.25
HITP | ≤ 0.25
FISD | ≤ 0.25
MFGM | ≤ 0.25
GYWS | ≤ 0.25
VNHP | ≤ 0.25
RLRW | ≤ 0.25
HYDQ | ≤ 0.25
NKRF | ≤ 0.25
LFPE | ≤ 0.25
FTGH | 1.49
GVYR | ≤ 0.25
MNTF | ≤ 0.25
DTVT | ≤ 0.25
YIFG | ≤ 0.25
GQVF | ≤ 0.25
YWTL | ≤ 0.25
IQQS | ≤ 0.25
TEAK | 2.31
PSCH | ≤ 0.25
QDFY | ≤ 0.25

Variant | enrichment ratio
IHRG | ≤ 0.25
LRTP | ≤ 0.25
VFEI | ≤ 0.25
MEMH | ≤ 0.25
TTMC | 6.54
KYYS | ≤ 0.25
HMAS | ≤ 0.25
TQQH | ≤ 0.25
HFLV | ≤ 0.25
VHCV | ≤ 0.25
LRSM | ≤ 0.25
WSSP | ≤ 0.25
RFMI | ≤ 0.25
TEFM | 3.29
FDGS | ≤ 0.25
FNCM | 5.18
QEIK | ≤ 0.25
KYVN | ≤ 0.25
TPAE | ≤ 0.25
RVDI | ≤ 0.25
HPAI | ≤ 0.25
DYAF | ≤ 0.25
QGAV | 7.22
RFAG | ≤ 0.25
WMRT | ≤ 0.25
HRDG | ≤ 0.25

Variant | enrichment ratio
LMGI | ≤ 0.25
GSCM | 7.32
TSMW | ≤ 0.25
DTPA | ≤ 0.25
GAVP | ≤ 0.25
PWWS | ≤ 0.25
MLDQ | ≤ 0.25
TDTR | ≤ 0.25
IRFP | ≤ 0.25
VIPS | ≤ 0.25
KRMF | ≤ 0.25
KFHK | ≤ 0.25
DMFV | ≤ 0.25
SHNY | 8.62
DQWH | ≤ 0.25
TMYK | ≤ 0.25
VCLD | ≤ 0.25
NERS | ≤ 0.25
DLPA | ≤ 0.25
RWLN | ≤ 0.25
MKLW | ≤ 0.25
DYCW | ≤ 0.25
NFGK | ≤ 0.25
RLWL | 0.608
RDKD | ≤ 0.25
FWVR | ≤ 0.25

Variant | enrichment ratio
IKFW | ≤ 0.25
MHDS | ≤ 0.25
DHTS | ≤ 0.25
IYMA | ≤ 0.25
ITLY | ≤ 0.25
SKAG | ≤ 0.25
VGFT | ≤ 0.25
YILV | 2.75
SYEE | ≤ 0.25
TYRS | ≤ 0.25
MSVH | 1.92
HSVD | ≤ 0.25
EAAE | ≤ 0.25
FENM | ≤ 0.25
TSMK | 5.55
GVAV | ≤ 0.25
KASL | ≤ 0.25
ISPY | ≤ 0.25
QHLF | ≤ 0.25
RNNT | ≤ 0.25
RKYR | ≤ 0.25
FMTC | ≤ 0.25
LECL | ≤ 0.25
KGLW | ≤ 0.25
LFTL | ≤ 0.25
WIPQ | ≤ 0.25

Variant | enrichment ratio
SFTI | ≤ 0.25
RVDE | ≤ 0.25
AKDN | ≤ 0.25
DNPF | ≤ 0.25
YYLS | ≤ 0.25
RWTM | ≤ 0.25
RNVP | ≤ 0.25
LCCL | ≤ 0.25
FNYP | ≤ 0.25
ALTS | 4.58
FHQP | ≤ 0.25
VYNK | ≤ 0.25
QIVQ | ≤ 0.25
QFSG | 2.84
YNHS | ≤ 0.25
IYAL | ≤ 0.25
WRKH | ≤ 0.25
EKMP | ≤ 0.25
TIMT | 5.04
YDRF | ≤ 0.25
NDRN | ≤ 0.25
FLTK | ≤ 0.25
IFVE | ≤ 0.25
SGQQ | 2.62
NEEV | ≤ 0.25
SSCY | 9.57

Variant | enrichment ratio
GDIS | ≤ 0.25
FHLN | ≤ 0.25
IAGQ | ≤ 0.25
SCLE | 0.563
QLMG | ≤ 0.25
FDMA | ≤ 0.25
IQNN | ≤ 0.25
QLDA | ≤ 0.25
ERIE | ≤ 0.25
VSWI | 1.37
LKGK | ≤ 0.25
MRMI | ≤ 0.25
YCMW | ≤ 0.25
IHWN | ≤ 0.25
YNTV | ≤ 0.25
KRWQ | ≤ 0.25
KLYD | ≤ 0.25
KWSY | ≤ 0.25
VVRS | ≤ 0.25
ATIT | 4.62
LGAQ | ≤ 0.25
EVYP | ≤ 0.25
RSKY | ≤ 0.25
